Test results reported in PubChem BioAssay AID1671194 (National Center for Advancing Translational Sciences (NCATS), 2021).
Where “and” joins values, the source holds several entries; their conditions need not be identical. Identical values can stand only once. About 240 (0.17%) of roughly 140,000 compounds were called active. Inconclusive results, whose numbers are uncertain, are shown with a selection of clear calls. Calls come from the whole dose curve; as a rule, active = well fitted inhibition curve with a large enough effect; inconclusive = small, poorly fitted or top-dose-only effect; inactive = no such curve, though single readings can be large or run the other way. Potencies beside an inconclusive call are fits to weak or partial responses and may not hold up.

test: Primary qHTS assay for inhibitors of alpha-synuclein gene (SNCA) expression; conditions: HEK-293 SNCA-luciferase knock-in, luminescence, 24 h; activity change, negative = inhibition: at 57.2 µM (top of the series) unless noted; note: nearly all actives have a fitted effect of over 45% in size;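 for activity change, negative = inhibition: plate controls were DMSO cells for no effect and cell-free wells for full effect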
Potency is the fitted concentration of half-maximal effect; tags give direction and shape of the fitted curve.

Row | Structure (SMILES) | Potency | activity change, negative = inhibition
1 | CN1C(=O)CC[C@]2(C(=O)N3CCN(c4ccc(F)cc4)CC3)CCCC[C@@H]12 | inconclusive: 12.6 µM [inhibitor, partial curve] | 
2 | COc1ccc(C(=O)Nc2cc(-c3nc4ccccc4s3)ccc2OC)cc1 |  | inactive: 49.7%
3 | C[S+](=O)([O-])NC1CCN(Cc2cccc(-c3cccs3)c2)CC1 |  | inactive: 8.06%
4 | COc1ccc(-c2nc(C3CC(=O)N(c4ccc(C)cc4)C3)no2)c(OC)c1 (stereo unspecified) | inconclusive: 0.708 µM [inhibitor, full curve, poor fit] | 
5 | CCOc1ccc(-c2nc(CSCC(=O)NCCc3ccc(OCC)c(OCC)c3)c(C)o2)cc1 | inconclusive: 39.8 µM [inhibitor, partial curve, poor fit] | 
6 | CC(Oc1ccccc1)C(=O)Nc1ccccc1C(=O)OCc1cc(=O)n2nc(C(C)C)sc2n1 (stereo unspecified) | inconclusive: 2.24 µM [inhibitor, full curve] | 
7 | COC(=O)C(NC(=O)N1CCc2nc3cc(-c4ccccc4)[nH]n3c(=O)c2C1)C(C)C (stereo unspecified) | inconclusive: 22.4 µM [inhibitor, partial curve, poor fit] | 
8 | COc1ccc(C(=O)N2CCC3(CC2)NCCc2c3[nH]c3ccccc23)cc1 |  | inactive: 11.2%
9 | CCS(=O)(=O)c1oc(-c2ccc(F)cc2)nc1S(=O)(=O)c1ccccc1 | inconclusive: 5.62 µM [inhibitor, full curve, poor fit] | 
10 | O=C(c1ccc(Nc2nccc(-c3cc4ccccc4s3)n2)cc1)N1CCC(N2CCCC2)CC1 | inconclusive: 13.6 µM [inhibitor, single point] | 
11 | CC(C)c1nc2ccccc2n1CC(=O)N1CC[C@](C)(O)[C@@H](O)C1 |  | inactive: 0.422%
12 | COc1ccccc1NC(=O)c1c(C)oc2ccn(Cc3ccc(F)cc3)c(=O)c12 | inconclusive: 35.5 µM [inhibitor, partial curve, poor fit] | 
13 | COc1ccc(N2CCN(C(=O)CN3C(=O)COc4ccc(S(=O)(=O)N5CCC(C)CC5)cc43)CC2)cc1 | inconclusive: 3.55 µM [inhibitor, partial curve, poor fit] | 
14 | CCOc1ccc(C(=O)N2CCC(Cc3nc(-c4ccc(F)cc4)no3)CC2)cc1OCC | inconclusive: 22.4 µM [inhibitor, partial curve, poor fit] | 
15 | CCOC(=O)c1cccnc1N1C[C@H]2OC(=O)N(Cc3ccccn3)[C@H]2C1 |  | inactive: 25.5%
16 | COc1ccc(-c2nnc(C[C@@H]3C[C@@H](C(C)C)[C@H](CN4CCN(c5ncccn5)CC4)C=C3C)o2)cc1 | inconclusive: 17.8 µM [inhibitor, single point] | 
17 | COCCNc1ncc(-c2ccncc2)c2c1OCC2 |  | inactive: 19.1% [at 87.6 µM]
18 | O=C(CCCCCn1c(=O)c2sccc2n(CC(=O)Nc2cc(C(F)(F)F)ccc2Cl)c1=O)NCc1ccccc1Cl | inconclusive: 15.8 µM [inhibitor, partial curve, poor fit] | 
19 | C[n+]1cc2c3c(ccc2c2ccc4cc5c(cc4c21)OCO5)OCO3 | inactive and inconclusive: 28.2 µM [inhibitor, single point] | 
20 | O=C(Nc1nc2ccc(F)cc2s1)c1nc(S(=O)(=O)Cc2ccccc2F)ncc1Cl | inconclusive: 39.8 µM [inhibitor, single point] | 
21 | O=C(CSc1cn(CCNC(=O)c2cccc(C(F)(F)F)c2)c2ccccc12)Nc1ccc2c(c1)OCCO2 | inconclusive: 39.8 µM [inhibitor, single point] | 

Row | Structure (SMILES) | Potency | activity change, negative = inhibition
22 | O=C(NCCOc1ccccc1)c1cnc2n1CCN(Cc1ccccc1O)CC2 | inconclusive: 56.2 µM [inhibitor, single point] | 
23 | CN(Cc1ccccc1)Cc1nnc(C(=O)N2CCC[C@@H]2c2ccc(Br)cc2)n1Cc1ccccc1 | inconclusive: 39.8 µM [inhibitor, single point] | 
24 | Cn1cc([C@@H](NC(=O)c2scc3c2CCCC3)C2CC(O)C2)cn1 (stereo partly specified) | inconclusive: 8.91 µM [inhibitor, partial curve, poor fit] | 
25 | Cc1ccccc1CC1(CO)CCCN(c2ccc(-c3nccn3C)nn2)C1 (stereo unspecified) | inconclusive: 14.1 µM [inhibitor, partial curve, poor fit] | 
26 | CC(=O)Nc1ccc(C(=O)N2CCC3(CC2)N=C(c2ccc(Cl)cc2)NO3)cc1 |  | inactive: -14.9%
27 | N#Cc1ccc(CN2CCc3ncc(C(=O)NCCOc4ccccc4)n3CC2)cc1 |  | inactive: -37% [at 87.6 µM]
28 | Cc1ccc(CNC(=O)c2cc(-c3ccc(C)cc3)nc3n[nH]c(-c4cccc([N+](=O)[O-])c4)c23)cc1 | inconclusive: 7.94 µM [inhibitor, single point] | 
29 | O=C(c1ccc2c(c1)OCO2)N1CCC2(CC(c3cccc(C(F)(F)F)c3)=NO2)C1 (stereo unspecified) |  | inactive: -14.2%
30 | CN(Cc1cccnc1)c1ccc2ncc(Nc3ccc(C(F)(F)F)cc3)n2n1 | inconclusive: 56.2 µM [inhibitor, single point] | 
31 | O=C(COCc1cc(-c2ccc(F)cc2)on1)Nc1cc(F)ccc1F | inconclusive: 39.8 µM [inhibitor, single point] | 
32 | CCOc1ccc(NS(=O)(=O)c2ccc3[nH]c4c(c3c2)CCCCC4)cc1 | inconclusive: 1.78 µM [inhibitor, partial curve, poor fit] | 
33 | Cc1nc([C@H]2CCN(Cc3ccc(F)cc3F)C[C@H]2NC(=O)CN(C)C)n[nH]1 |  | inactive: 23.9%
34 | Cn1nnnc1SCCNCc1cc(Br)ccc1OCc1ccccc1Cl | inconclusive: 4.47 µM [inhibitor, single point] | 
35 | OC[C@H]1O[C@@H](Oc2cc(O)cc(C=Cc3ccc(O)cc3)c2)[C@H](O)[C@@H](O)[C@H]1O | inconclusive: 21.5 µM [inhibitor, partial curve, poor fit] | 
36 | COc1ccc(CC(=O)N2CCN(c3cc(-c4ccc(OC)cc4)[nH]n3)CC2)cc1 |  | inactive: 0.56%
37 | CC(=O)c1ccc(N2CCN(C(=O)C3CCN(S(=O)(=O)c4cn(C)cn4)CC3)CC2)cc1 | inconclusive: 22.4 µM [inhibitor, partial curve, poor fit] | 
38 | COc1cc(CN2CCCC(COc3ccccc3C(=O)NC(C)C)C2)ccc1O (stereo unspecified) | inconclusive: 11.2 µM [inhibitor, partial curve] | 
39 | Cc1ccc(Cl)cc1Nc1nn2c(=O)c3ccc(C(=O)NCc4ccc(F)cc4)cc3nc2s1 | inconclusive: 39.8 µM [inhibitor, single point] | 
40 | COc1cccc([S+](=O)([O-])N2CCC(C(=O)N3CCC(N4Cc5cccn5C4=O)CC3)CC2)c1 |  | inactive: 2.09%
41 | COc1cccc(CC(=O)N2CCC3(CC2)OC(=O)N(Cc2ccccc2F)C3(C)c2ccccc2)c1 (stereo unspecified) |  | inactive: -23.3%
42 | CCOC(=O)c1c(Nc2ccc(OC)cc2)nnc(-c2ccccc2)c1-c1ccccc1 | inconclusive: 39.8 µM [inhibitor, single point] | 

Row | Structure (SMILES) | Potency | activity change, negative = inhibition
43 | COc1ccc(-c2csc(=Nc3ccccc3)n2CCO)cc1F |  | inactive: 71.2%
44 | COc1cccc(NC(=O)Cn2cc(C(=O)c3ccc(C)cc3)c(=O)c3cc(OC)ccc32)c1 | inconclusive: 39.8 µM [inhibitor, single point] | 
45 | COCCn1cc(C(=O)NC2CCCc3c2[nH]c2c(Cl)cccc32)c2ccccc2c1=O (stereo unspecified) | inconclusive: 22.4 µM [inhibitor, partial curve, poor fit] | 
46 | COc1ccc2[nH]c3c(c2c1)CCNC31CCN(C2CCCC2)CC1 | inconclusive: 39.8 µM [inhibitor, single point] | 
47 | CCc1ccc(NC(=O)CN2C(=O)C3(SCC(=O)N3c3ccc(F)c(F)c3)c3ccccc32)cc1 (stereo unspecified) | inconclusive: 39.8 µM [inhibitor, single point] | 
48 | Cc1cccc(C2CC(=O)Nc3cc4c(cc32)OCO4)c1 (stereo unspecified) | inconclusive: 39.8 µM [inhibitor, single point] | 
49 | CCc1nc2nc(C)cc(Nc3cccc(C)c3C)n2n1 |  | inactive: 19.9%
50 | CCc1noc(-c2ccn3c(CNC(=O)c4cccnc4)nnc3c2)n1 |  | inactive: 4.9%
51 | COc1cc(NC(=O)c2cc3n(n2)CC(c2ccc(Br)cc2)OC3)cc(OC)c1OC (stereo unspecified) | inconclusive: 2.82 µM [inhibitor, partial curve, poor fit] | 
52 | O=C(CN1C(=O)c2cccnc2Oc2ccc(Cl)cc21)Nc1cccc(C(F)(F)F)c1 | inconclusive: 0.178 µM [inhibitor, full curve, poor fit] | 
53 | CCCC(=O)Nc1ccc(C(=O)N2CCc3nc(C)n(C)c(=O)c3CC2)cc1 | inconclusive: 39.8 µM [inhibitor, single point] | 
54 | CN(C)C(C(=O)N1CCN(c2ccc(C#N)cc2)CC1)c1ccccc1F (stereo unspecified) |  | inactive: 1.45%
55 | CCC(C)(C)NC(=O)c1cccc2c1CCN2C(=O)Nc1ccc(C)cc1 | inconclusive: 31.6 µM [inhibitor, partial curve, poor fit] | 
56 | CN(C)Cc1ccccc1-c1nc(NC2CCNCC2)c2ccccc2n1 | inconclusive: 4.47 µM [inhibitor, single point] | 
57 | OCC1CN(C2CCC2)CC12CCN(Cc1cc(F)c(F)c(F)c1)CC2 (stereo unspecified) | inconclusive: 12.6 µM [inhibitor, partial curve, poor fit] | 
58 | Cc1cc(Nc2cccc(C(F)(F)F)c2)nc2ccc(NC(=O)c3cccc(Cl)c3)cc12 | inconclusive: 10 µM [inhibitor, partial curve] | 
59 | O=C(NCCCN1CCOCC1)c1ccc2c(c1)N(Cc1cccc(Cl)c1)C(=O)c1ccccc1S2 | inconclusive: 39.8 µM [inhibitor, single point] | 
60 | COc1cc(NC(=O)CSc2ccc(-c3ccccn3)nn2)cc(OC)c1 | inconclusive: 17.8 µM [inhibitor, single point] | 
61 | O=C(CSc1nc(-c2ccc(F)cc2)[nH]c1-c1ccc(F)cc1)Nc1ccc2c(c1)OCO2 | inconclusive: 39.8 µM [inhibitor, single point] | 
